Assay results published in the supplement of paper PMC8277577.
Residue numbers refer to the chain shown, from its start. Recombinant human monoclonal antibodies (heavy:light variable regions). ELISA EC50 on the named antigen, from 10 µg/ml down; lower = stronger. No active / inactive call.

B1: C877 (protein)
chain 1: EVQLVESGGGLIPPGGSLRLSCAASGIIVSRNYMSWVRQTPGKGLEWVSVMYAGGTKEYADSVKGRFIISRDDSNNTLYLQMNSLRAEDTAVYYCARDLIVLGVDVWGQGTTVTVSS
chain 2: DIQLTQSPSFLSASVGDRVTITCRASQGISNYLAWYQQKPGKAPKLLIYAASTLQSGVPSRFSGSGSGTEFTLTISSLQPEDFATYYCQLLNSYPMCSFGQGTKLEIK
B2: C875 (protein)
chain 1: QVQLVQSGAEVKQPGASVKISCKASGYIFTTYFMHWVRQAPGQGLEWLGIIDPTISGASLAQKFQGRVTMTSDTSTSTVYMEMRSLRSDDTALYFCARASTSTSSWSEALSLGSWGQGTLVTVSS
chain 2: QSVLTQPPSVSGAPGQGVSISCTGSSSNVGAGYGVHWYQQLPGTTPKLLIYDNNSRPAGVPDRFSGSKSGTSASLAIAGLQPEDEADYYCQSWDNGLSGSGVVFGGGTKVTVL
B3: C886 (protein)
chain 1: EVQLVESGGDLVQPGGSLRLSCAASGFSVTTNAMAWVRQAPGKGLEWISYINIGSANIQYADSVKGRFTISRDNAKNSLYLQMNSLRDEDTAVYYCARGDCTSSSCYSLDYWGQGALVTVSS
chain 2: DIQMTQSPSSLSASVGDRVSITCRASQTINTHLSWYLQKPGEAPRLLVYAASTLHSGVPSRFSGSGSGTDFTLTISSLQPEDFATFYCQQTYRFPLTFGGGTKVEIK
B4: C887 (protein)
chain 1: B3 chain 1 with S28T, V29F, N32Y, A33S, A35S, I53S, Q59H, I70V, T102L
chain 2: DIQMTQSPSSLSASVGDRVTITCRASQSITSYLSWYLQKPGEAPKLLIYAASILQSGVPSRFGGNGSGTDFTLTISSLQPEDFATFYCQQTYRSPLTFGGGTKVEIK
B5: C837 (protein)
chain 1: QVQLVESGGGVVQPGRSLRLSCEASRFTFRSHAMHWVRQAPGKGLEWVAVIWYDGKNEYYADSVKGRFTISRDNSKKMVYLQMNNLRAEDTAVYYCAREGIAAPDSKADAFDIWGQGTMVTVSS
chain 2: QSVLTQPPSASGTPGQRVTIPCSGGSSNIGSNTVHWYQQVPGTAPKLLVYGNNRRPAGVPDRFSGSRSGASASLAITGLQSEDEAVYYCATWDDSPNGPVFGGGTKLTVL
B6: C876 (protein)
chain 1: EVQLVESGGGLIQPGGSLRLSCAASEFVISRNYMSWVRQAPKKGLEWVSVLYSGGSTFYADSVKGRFTISRDDSRNMLYLQMNSLRAEDTAVYYCVRDFGEFYFDYWGQGVLVTVSS
chain 2: EIVMTQSPTTLSVSPGERATLSCRASQSLSSNLAWYQQKPGQAPRLLIFGVSTRATGIPARFSGSGSGTEFTLTISSLQSEDFAVYYCQQYYSGPRTFGQGTKVEIK
B7: C872 (protein)
chain 1: EVQLVESGGGLIQPGGSLRLSCAASGFIVSNNYISWVRQAPGKGLEWVSVIYSGGTTYYADSVKGRFSISRDTSKNTVYLQINNLRAEDTAVYYCAREGDVDGNYGFWSGYSRDRYYFDYWGQGTLVTVSS
chain 2: QSALTQPASVSGSPGQSITISCTGTSSDVGAYNYVAWYQQHPGKAPKLMVYDVSKRPSGVSNRFSGSKSGNTASLTISGLQTEDEGDYYCCSYTTNTTRVFGTGTMLTVL
B8: C878 (protein)
chain 1: EVQLVESGGGLVQPGGSLRLSCSVSGFTFSNFAMHWVRQAPGKGLEFVSGVSSDGDITDYADSVKGRFTISRDNSKNTLYLQMSSLRPEDTAVYYCVKDKEHSTMVTIFDFWGQGTLVTVSS
chain 2: DIQMTQSPSSLSASVGDRVTITCRASQSISSFLNWYQQKPGKAPKLLIYAASSLQSGVPSRFSGRGSGADFTLTITSLQPEDFATYFCQQSYSSHLTFGPGTKVDIK
B9: C888 (protein)
chain 1: EVQLVESGGGLVQPGGSLRLSCAASGFTVSSNYMSWVRQAPGKGLEWVSVIYSGGSAYYADSVKGRFTISRDNSKNTLYLQMNSLRAEDTAVYYCARDLRDQDGYSYGAFDYWGQGTLVTVSS
chain 2: QSALTQPASVSGSPGQSITISCTGTSSDVGGYNYVSWYQQHPGKAPKLMIYDVSNRPSGVSNRFSGSKSGNTASLTISGLQAEDEADYYCSSYTSSSSWVFGGGTKLTVL
B10: C879 (protein)
chain 1: QVQLQESGPGLVKPSQTLSLTCGVSGDSISSGGHFWSWVRQHPGTGLEWIAYSPFSGTTYYNPSLKSRVTLSVDTSKNQFFLSLTSVTDADTAVYFCARVKGWLRGYFDHWGQGVLVTVSS
chain 2: NFMLTQPHSVSESPGKTVTISCTASSGNIVNNYVQWYQQRPGSAPIIVIYEDAQRPSGVPDRFSGSIDTSSNSASLTISGLKTEDEADYYCQSYEIDSHVVFGGGTRLTV
B11: C885 (protein)
chain 1: QVQLQESGPGLVKPSQTLSLTCAVSGDSIRSGGYYWSWVRQHPGRGLEWIGYIYFSGTTYYNPSLKSRVTISVDTSEKQFSLKLTSVTDADTAVYFCARVKGWLRGYFDYWGQGALVTVSS
chain 2: B10 chain 2 with P7S, A24G, A53T, E95D, I96S, D97G, R107K
B12: C882 (protein)
chain 1: QVQLVESGGGVVQPGRSLRLSCAASGFTFIRYNMHWVRQAPGKGLEWVAVIWYDGSNKYYADSVKGRFTISRDNSKNTLYLQMNSLRAEDTAVYYCARDPMIVVVEMDYWGQGTLVTVSS
chain 2: DVVMTQSPLSLPVTLGQPASISCNSSQSLVHTDGNTYLNWFQQRPGQSPRRLIYKVSNRDSGVPDRFSGSGSDTDFTLQISRVEADDVGVYYCMQGSHWPYTFGQGTKLEIK
B13: C884 (protein)
chain 1: QVQLQQWGAGLLKPSETLSLTCVVYGGSFSAYYWSWIRQPPGKGLEWIGEINHSGSTNYKSSLQSRVTISVDTSKNQFSLKLSSVTAADTAVYYCARETGTYGTFDHWGQGTLVTVSS
chain 2: EIVLTQSPGTLSLSPGERATLSCRASQSVSSTYLAWYQQKPGQAPRLLIYGASSRATGIPDRFSGSGSGTDFTLTISRLEPEDFAVYYCQQYAFSVWTFGQGTKVEI
B14: C881 (protein)
chain 1: EVQLVESGGGLIQPGGSLRLSCAVSGVAVSTNYMSWVRQAPGQGLEWVSTIYSGDTTYYSDSVKGRFTISRDNSKNTFYLQMNSLRVPDTAVYYCARLGGVFNGFNGSFDYWGQGTLVTVS
chain 2: QSALTQPASVSGSPGQSITISCIGTSSDFENYNLVSWYQQHPGKAPKVMIYEDTKRPSGVSNRFSGSKSANTASLTISGLQAEDEAEYYCCSYAGASTWVFGGGTRVTVV
B15: C880 (protein)
chain 1: QVQLQQWGAGLLKPSETLSLTCAVYGGSFSDYYWSWIRQPPGKGLEWIGENNHSGKTNYNPSLENRVTISVDTSKNQFSLKLTSVTAADTAVYYCARESGSYGTFDYWGQGTLVTVSS
chain 2: EIVLTQSPGTLSLSPGERATLSCRASQSVSSAYLAWYQQKPGQAPRLLIYGASSRATGIPDRFSGSGSGTDFTLTISRLEPEDFAVYFCQQYAYTIWTFGQGTKVEIK
B16: C871 (protein)
chain 1: EVQLVESGGGLIQTGGSLKLSCAASGFIVTNNYMSWVRQAPGKGLEWVSVIYSGGTTYYADSVKGRFTISRDISKNTLYLQMNSLKAEDTAVYYCAREGDVEGISDSWSGYSRDRYYFDHWGQGTLVTVSS
chain 2: QSALTQPASVSGSPGQSITISCTGTSSDVGGYNYVSWYQQHPGKAPKLMIYDVSNRPPTISNRFSGSKSGNTASLIISGLQPEDEADYYCSSFTSNNTRVFGTGTKVTVL
B17: C950 (protein)
chain 1: QVQLVESGGGLVKPGGSLRLSCAASGFTFSDYCVTWIRQAPGKGLEWLSYSNTNDSSRSYADSVKGRFTISRDNAKNSLYLQMDSLRAEDTAVYYCARRGDGNVPLFHYYYMDVWGKGTTVTVSS
chain 2: QSVLTQPPSASGTAGQRVTISCSGGSSNIGSNTVHWYQQLPGTAPKLLIYSNYKRPSGVPDRFSGSKSGASASLAISGLQSEDEAEYYCAAWDDSANGPIFGGGTKLTVL
B18: C870 (protein)
chain 1: EVQLVESGGGLVQPGKSLRLSCAGSGFAFSSYHMNWVRQAPGKGLEWVAYISSGSSTIHYADSVKGRFTISRDNAKNSFYLQMNSLRAEDTALYYCARAIVGTKGYMDVWGKGTTVTVSS
chain 2: QSALTQPASVSGSPGQSVTISCTGTRSDVGSYDLVSWYQLHADKAPKLIIYEVTSRPSGISTRFSGSKSGNTASLTISGLQAEDEADYYCCSYAGTTWLFGGGTRLTVL
B19: C874 (protein)
chain 1: QVQLVQSGPEVKKPGASVKVSCKASGYIFTDYSIHWVRQAPGQGLEWMGWINPNSGGGNSAQIFKGRATMARDTSITTVYMDLSGLRSDDTAVYYCARGPLFHKVVYESSSGFHDGLDFWGQGTMVTVSS
chain 2: NFMLTQPHSVSESPGKTVTISCTGSSGSIASNYVQWYQQRPGSAPTTVIYEDNQRPSGVPDRFSGSIDSSSNSASLTISGLKTEDEADYYCQSYDSSNYWVFGGGTKLTVL

Biological target: SARS-CoV-2 Wuhan-Hu-1 spike receptor-binding domain
Test: ELISA binding EC50; higher = weaker binding; ELISA of recombinant human antibody on coated antigen, from 10 µg/ml in fourfold dilutions; four-parameter fit.

Binder | ELISA binding EC50
B1 | 2.53 ng/mL
B2 | 3.5 ng/mL
B3 | 2.48 ng/mL
B4 | 2.53 ng/mL
B5 | 2.03 ng/mL
B6 | 3.53 ng/mL
B7 | 2.19 ng/mL
B8 | 2.88 ng/mL
B9 | 1.44 ng/mL
B10 | 4.25 ng/mL
B11 | 7.45 ng/mL
B12 | 2.9 ng/mL
B13 | 4.22 ng/mL
B14 | 1.44 ng/mL
B15 | 2.2 ng/mL
B16 | 1.52 ng/mL
B17 | 2.15 ng/mL
B18 | 2.17 ng/mL
B19 | 5.2 ng/mL
